Assay results reported in article PMC4336329 (PLoS ONE, 2015).
Out of some 310,000 compounds screened, about 2,200 (0.71%) showed an effect of 50% or more. Effects have a minus sign here. The list shows a part of the results.

Target: human ether-à-go-go-related gene (hERG) potassium channel (human, UniProt Q12809)
Assay: primary screen, population patch clamp on CHO cells stably expressing hERG

Sequence of human ether-à-go-go-related gene (hERG) potassium channel (Q12809 whole entry, looked up): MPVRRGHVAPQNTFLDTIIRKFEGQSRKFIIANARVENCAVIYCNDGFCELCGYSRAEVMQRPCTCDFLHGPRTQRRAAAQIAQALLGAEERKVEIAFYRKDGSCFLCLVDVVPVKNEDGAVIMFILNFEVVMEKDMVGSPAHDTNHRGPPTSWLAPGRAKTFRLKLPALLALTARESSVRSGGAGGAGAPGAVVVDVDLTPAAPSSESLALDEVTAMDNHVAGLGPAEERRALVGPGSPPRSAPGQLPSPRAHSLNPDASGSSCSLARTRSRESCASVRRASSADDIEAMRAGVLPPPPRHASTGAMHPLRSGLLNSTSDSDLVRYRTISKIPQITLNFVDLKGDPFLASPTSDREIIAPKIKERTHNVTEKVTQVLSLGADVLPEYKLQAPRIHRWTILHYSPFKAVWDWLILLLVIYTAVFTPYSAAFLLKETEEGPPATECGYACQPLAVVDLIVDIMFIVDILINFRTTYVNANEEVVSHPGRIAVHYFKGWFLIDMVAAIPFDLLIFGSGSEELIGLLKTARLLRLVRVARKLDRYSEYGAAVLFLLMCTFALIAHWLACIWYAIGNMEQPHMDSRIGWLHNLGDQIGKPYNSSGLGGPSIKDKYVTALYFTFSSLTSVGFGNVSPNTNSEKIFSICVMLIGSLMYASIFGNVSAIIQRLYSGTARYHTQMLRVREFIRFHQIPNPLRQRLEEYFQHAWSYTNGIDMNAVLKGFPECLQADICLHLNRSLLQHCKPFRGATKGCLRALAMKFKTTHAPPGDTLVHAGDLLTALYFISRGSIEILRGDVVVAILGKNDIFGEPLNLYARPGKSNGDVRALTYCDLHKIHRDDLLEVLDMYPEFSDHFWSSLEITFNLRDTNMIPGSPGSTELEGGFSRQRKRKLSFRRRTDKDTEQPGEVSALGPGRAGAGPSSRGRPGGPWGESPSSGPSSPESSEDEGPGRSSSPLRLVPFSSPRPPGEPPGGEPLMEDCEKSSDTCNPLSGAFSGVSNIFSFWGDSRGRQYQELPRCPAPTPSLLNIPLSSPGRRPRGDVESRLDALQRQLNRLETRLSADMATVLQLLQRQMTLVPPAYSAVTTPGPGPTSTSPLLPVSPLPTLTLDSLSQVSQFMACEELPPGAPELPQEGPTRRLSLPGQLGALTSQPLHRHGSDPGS

SMILES	hERG current change (%, negative = inhibition) at 1uM
Cc1nn(CCCC(=O)Nc2ccc(Br)cc2F)c(C)c1[N+](=O)[O-]	3.02%
O=C1NC2(CCCCC2)N=C1c1ccccc1	12.6%
COc1ccc(NS(=O)(=O)c2nnc(NC(=O)c3ccccc3F)s2)cc1	8.19%
COC(=O)c1ccc(NC(=O)CSc2nc3cccnc3n2C)cc1	19.8%
COc1cc2nc(N(CCN(C)C)C(=O)c3ccc(S(=O)(=O)N(C)CC4CCCO4)cc3)sc2cc1OC.Cl (stereo not shown)	9.05%
O=C(COc1cccc2ccccc12)N1c2ccccc2CCc2ccccc21	0.892%
CC(=O)c1ccc(NC(=O)c2noc(C)c2[N+](=O)[O-])cc1	14.8%
Cc1onc(-c2c(Cl)cccc2Cl)c1C(=O)N1CCN(c2ccccc2)CC1	8.86%
O=C(CCS(=O)(=O)c1ccccc1)Nc1cccc2c1C(=O)NC2=O	9.71%
O=C(CSc1ccccn1)NCc1ccc2c(c1)OCO2	1.19%
CCn1c(SCC(=O)NC2CC2)nnc1C(C)Oc1ccccc1 (stereo not shown)	1.29%
Cc1ccc(CCNC(=O)C2CCN(S(=O)(=O)c3ccc4c(c3)NC(=O)CO4)CC2)cc1	8.71%
CC(C)C(=O)NCc1cc(-c2ccc(Cl)cc2)no1	9.15%
COc1ccc(NC(=O)NNC(=O)COc2ccc3cc(Br)ccc3c2)cc1	16.4%
O=C(O)c1ccc(N2CCCCCC2)c(N2C(=O)c3ccccc3C2=O)c1	0.27%
CCN(CC)S(=O)(=O)c1cc(C(=O)N(C)CC(=O)Nc2ccc(Cl)cc2)ccc1Cl	-1.15%
O=C(c1cccc(S(=O)(=O)NCCOc2ccccc2)c1)N1CCN(c2ncccn2)CC1	-9.35%
CCSc1nnc(NC(=O)Cn2cnc3ccccc3c2=O)s1	10%
O=C(CN1C(=O)NC2(CCCCC2)C1=O)Nc1ccc2c(c1)OCCCO2	7.13%
CCN1CC(=O)Nc2cc(S(=O)(=O)N3CCOCC3)ccc21	7.14%
CCOc1ccc(C(=O)CCC(=O)Nc2cc(C)ccn2)cc1	13.7%
Cc1[nH][nH]c(=O)c1N=Nc1ccccc1Cl	17%

SMILES	hERG current change (%, negative = inhibition) at 1uM
Cc1ccc(N(CC(=O)NC2CCCC2)C(=O)CNC(=O)c2cccs2)cc1C	11.9%
CCOC(=O)c1sc(NC(=O)Nc2ccccc2)cc1C	4%
CC1(C)COC(/C=C/c2cccc([N+](=O)[O-])c2)=N1	6.63%
Cl.O=C(c1ccco1)N1CCN(C(c2ccccc2)c2nnnn2C2CCCC2)CC1 (stereo not shown)	0.213%
O=C(CSc1nc(=O)[nH]c2c1CCCC2)Nc1cc(C(F)(F)F)cc(C(F)(F)F)c1	14.5%
O=C(Nc1nnc(-c2ccco2)o1)c1ccc(Cl)s1	7.99%
CCN(CC)P(=O)(Nc1ccc([N+](=O)[O-])cc1)c1c(C)nn(CCC#N)c1NC(=O)c1ccc(Cl)cc1 (stereo not shown)	-26%
Cc1c(N(C)S(=O)(=O)c2cccc(C(=O)NCC3CCCO3)c2)c(=O)n(-c2ccccc2)n1C (stereo not shown)	-19.3%
CN(C)C(CNC(=O)c1c(F)cccc1Cl)c1ccco1 (stereo not shown)	24.5%
COC(=O)c1ccc(/C=C/c2ccc3cccc(OC)c3n2)cc1	9.08%
CCOc1ccc(S(=O)(=O)NC2CCCC2)cc1	13.2%
Cn1cc(C=O)c2cc(F)ccc21	3.19%
O=[N+]([O-])c1ccccc1S(=O)(=O)Nc1cccc(-c2ccc(N3CCCC3)nn2)c1	13.9%
Cc1ccc(NC(=O)c2ccc(NCc3ccco3)c([N+](=O)[O-])c2)cc1Cl	9.79%
COc1cccc(OC)c1OCCCCCc1c(C)n[nH]c1C.Cl	10.6%
CC(C)CC1C(C#N)=C(N)SC(N)=C1C#N	10.8%
Cc1nn(-c2ccccc2)c(NC(=O)c2ccccc2)c1Br	8.81%
ON=C1c2ccccc2-c2ccccc21	10.2%
O=C(Nc1c(C(=O)O)[nH]c2ccc(F)cc12)c1cccc(C(F)(F)F)c1	-0.0799%
Cc1onc(-c2c(Cl)cccc2Cl)c1C(=O)N1CCN(Cc2ccccc2)CC1	7.89%
CC(=O)Nc1sc(/C(C#N)=C\c2cccc(Cl)c2)nc1-c1ccc(C)cc1	4.11%
COc1ccc(CCNc2nnc(Sc3nnnn3-c3ccccc3)s2)cc1OC	-9.73%

SMILES	hERG current change (%, negative = inhibition) at 1uM
Cn1c(-c2ccc(Cl)nc2)nc2ccccc21	10.1%
Nc1nonc1-n1nnc(C(=O)N/N=C/c2cc(Cl)ccc2O)c1CN1CCCCCC1	10.7%
CC(=O)N1CCC(N(C(=O)Nc2ccc(C)c(C)c2)C2CCCC2)CC1	-4.91%
O=C(NCCSCc1ccccc1)c1ccc(F)cc1	3.15%
COc1ccccc1N1CCN(Cc2ccc(SC)cc2)CC1.O=C(O)C(=O)O	-53.8%
CN(C)c1nc(NCc2ccccc2)nc(N/N=C/c2cccc(Br)c2)n1	22.7%
CC(C)=CCC/C(C)=C/CCC(C)NCCN1CCNCC1 (stereo not shown)	-3.73%
CC(C)CN(C(=O)C1=NN(c2ccccc2)C(=O)CC1)c1c(N)n(Cc2ccccc2)c(=O)[nH]c1=O	6.64%
NC(=O)c1nsc(C(=O)N(c2ccc(Cl)cc2)C(C(=O)NCC2CCCO2)c2cccs2)c1N (stereo not shown)	10.7%
O=C(COC(=O)Cc1ccc(F)cc1)Nc1ccc2[nH]c(=O)[nH]c2c1	15.4%
Cc1ccccc1OCC(=O)Nc1cccc(S(=O)(=O)NC2=NCCCCC2)c1	9.96%
COC(=O)C1(C(F)(F)F)N=C2Sc3ccccc3N2C(N2CCOCC2)=N1 (stereo not shown)	14.8%
O=C(Nc1nc2c(s1)CCCC2)c1nn(Cc2ccccc2)c(=O)c2ccccc12	3.84%
CC(C)/C(C=O)=C(/NC1CCCCC1)c1ccccc1	10.8%
C=CCn1c(SCc2n[nH]c(=S)n2-c2ccccc2)nnc1-c1ccccc1	3.44%
CC(C)CCN1CCN(Cc2ccsc2)CC1CCO (stereo not shown)	7.06%
CCOc1ccc(C(=O)NC2CCN(C(=S)NCc3ccco3)CC2)cc1	-22.6%
Cc1ccc(-c2csc(=S)n2CC(=O)OCC(=O)NCc2ccco2)cc1	1.59%
COc1cc2c(cc1OC)CN(C(=O)c1cccs1)CC2	8.62%
O=C(NN1CCOCC1)c1ccc(Cl)cc1	3.21%
CCc1ccc(NC(=S)NCc2cccnc2)cc1	5.53%
O=C(NC1CC1)c1c[nH]c2ccc(S(=O)(=O)Nc3cccc(C(F)(F)F)c3)cc2c1=O	5.59%

SMILES	hERG current change (%, negative = inhibition) at 1uM
CCN(c1ccccc1)S(=O)(=O)c1cc([N+](=O)[O-])ccc1N	15.3%
CC(=O)Nc1cc(S(=O)(=O)Nc2ccccc2)c(C)cc1C	4.49%
CCOC(=O)c1[nH]c2ccccc2c1NC(C)=O	9.69%
O=C(CCC(F)(F)F)N1CCCC(CO)(CCc2ccccc2)C1 (stereo not shown)	-3.42%
COc1cc(/C=N/O)ccc1OCc1ccccc1Cl	12.7%
Cc1ccc2nc3c(nc2c1)-c1ccccc1C3=O	7.74%
O=C(NCc1ccncc1)C1CCC(=O)N(CCc2ccc(Cl)cc2)C1 (stereo not shown)	-34.4%
Cc1c(C(=O)NCCCc2ccccc2)cccc1[N+](=O)[O-]	4.59%
COc1ccc(C(=O)C[n+]2cccc3cc(C)ccc32)cc1.[Br-]	12%
O=C(O)c1ccccc1C(=O)OCCCc1ccncc1	14.5%
C=CCn1cc(-c2cccc(C(F)(F)F)c2)cc(C#N)c1=O	4.22%
COc1ccc(N=C2S/C(=C\c3ccc(N4CCOCC4)o3)C(=O)N2CCc2c[nH]c3ccccc23)cc1	16%
COCC(=O)Nc1cc(C)cn(Cc2cccc(C(F)(F)F)c2)c1=O	6.31%
CN(C)c1nc(-c2ccccc2)cc(C(F)(F)F)c1C#N	10.7%
COc1cc2ccccc2cc1C(=O)Nc1nc(C)c(C(C)=O)s1	18.7%
Cc1cc2nc(-c3ccc[nH]c3=O)n(Cc3cccc(F)c3)c2cc1C	11%
Cc1nnc2ccc(-c3cccc(NS(=O)(=O)c4ccccc4[N+](=O)[O-])c3)nn12	-1.85%
CNC(=O)C1Cc2ccccc2CN1S(=O)(=O)c1ccc(OC)c(OC)c1 (stereo not shown)	12.9%
COCCn1c(SC2CCOC2=O)nc2ccccc2c1=O (stereo not shown)	7.9%
CCc1ccc(NC(=O)C(C)Oc2nnc(-c3cccs3)c(-c3cccs3)n2)cc1 (stereo not shown)	3.36%
Cc1cccc(-n2c(C)cc(/C=N\NC(=O)c3ccco3)c2C)c1	3.71%
Cc1cc(N=Nc2ccc(C)c(N=Nc3cc(C)c(N)cc3N)c2)c(N)cc1N	14.3%
